Measured values from article PMC10668032.
The other results are listed elsewhere or left out. At the low end of the ranking the order means little.

What follows are sequences tested against SIX1-Q177R homeodomain (UniProt Q15475) (assay: universal protein binding microarray). Conditions: Universal all-10-mer PBM (8x60K, AMADID 030236), 300 nM GST-tagged protein, Alexa Fluor 488 anti-GST; buffer, salt, pH and temperature not stated; high values mean tight binding; most listed sequences are background and not binding sites; double strand, one strand shown.

| Sequence | binding signal |
| --- | --- |
| GGTAACTA | 0.112 E-score |
| CAAGGATG | -0.162 E-score |
| CCGTACTC | 0.126 E-score |
| CTTATCAA | -0.173 E-score |
| ATTTCGAC | -0.0898 E-score |
| ACTCTCAT | -0.0746 E-score |
| ATAACGAC | 0.0874 E-score |
| CGTCCGTC | -0.0952 E-score |
| CTGAGGTA | 0.185 E-score |
| AAGAAGCC | -0.169 E-score |
| ATTTCTGG | 0.00773 E-score |
| AGCCCTGG | -0.112 E-score |
| AATGCTAC | -0.0358 E-score |
| CTATGGGC | -0.171 E-score |
| ACCCAACC | 0.128 E-score |
| AGGATTTG | 0.0393 E-score |
| CTTCCCGC | -0.0561 E-score |
| AACTGCAA | -0.0818 E-score |
| CCAGCGTA | 0.0867 E-score |
| TCGCAGCA | -0.139 E-score |
| CAGCGGGC | -0.299 E-score |
| CACGGCGA | 0.259 E-score |

| Sequence | binding signal |
| --- | --- |
| ATAGAGGA | 0.149 E-score |
| ATCTGCGA | 0.0327 E-score |
| CCTTCCTA | 0.0445 E-score |
| GTTACAAC | -0.0466 E-score |
| CAAGACTC | -0.0127 E-score |
| AACGGCAG | -0.0456 E-score |
| CTTACCAA | -0.0789 E-score |
| ACCCGGAG | 0.298 E-score |
| TCTAGACA | 0.155 E-score |
| CGAGGGGA | 0.121 E-score |
| CCCATGAG | 0.0726 E-score |
| AACTTTAA | -0.237 E-score |
| AGTAGTCA | 0.13 E-score |
| AAAGGTCT | -0.228 E-score |
| GCTGGCAC | 0.0975 E-score |
| CAGTCGGG | 0.196 E-score |
| AAGTTCAC | -0.158 E-score |
| ACGGCGAG | 0.058 E-score |
| CACTGCAC | 0.223 E-score |
| ACATAAAA | -0.0789 E-score |
| ACGAATCA | -0.0578 E-score |
| ATGCTGCA | 0.0502 E-score |

| Sequence | binding signal |
| --- | --- |
| ACTCATGA | -0.102 E-score |
| CAAGGTAA | -0.0915 E-score |
| CTCTCCGA | -0.178 E-score |
| AGCCCGGC | -0.0685 E-score |
| GCGCTCCC | -0.175 E-score |
| CTTCCGTC | -0.157 E-score |
| CCCAAATA | -0.0946 E-score |
| CACAGCTG | -0.075 E-score |
| ACGGCTCT | -0.0868 E-score |
| ATGGTCAA | -0.196 E-score |
| GGCGTAGA | -0.0209 E-score |
| GGTGCGAA | 0.131 E-score |
| ACGAGTTC | -0.0617 E-score |
| GCGAAGAC | 0.0267 E-score |
| CGTGGGGC | 0.00507 E-score |
| CCGCGGAA | -0.0881 E-score |
| GACCTATA | -0.0673 E-score |
| GCAAAGAC | -0.326 E-score |
| ATCAGCCG | -0.147 E-score |
| CATTGGCG | 0.0382 E-score |
| GTAAGTGA | 0.011 E-score |
| GTTCCCAA | -0.142 E-score |

| Sequence | binding signal |
| --- | --- |
| GCTAGGCA | -0.284 E-score |
| CAAGGGAA | -0.0453 E-score |
| GTTCTATA | -0.0522 E-score |
| AATACCGT | 0.0468 E-score |
| ACCCTCAC | 0.127 E-score |
| ACGGACTA | -0.108 E-score |
| ACCTAAGT | -0.052 E-score |
| CGCTTCGA | 0.00389 E-score |
| CGTGCGGA | -0.0768 E-score |
| GCATGGAA | -0.128 E-score |
| AGAAGCTC | -0.316 E-score |
| AAATACCC | 0.0467 E-score |
| AATGTTTA | -0.231 E-score |
| GGCGCCAA | -0.169 E-score |
| ATGTCCTA | -0.00932 E-score |
| CCCAGCAA | -0.0696 E-score |
| AAGGGCAA | -0.0942 E-score |
| AAAAGGGA | -0.0864 E-score |
| GGTAGTAC | 0.0786 E-score |
| CCGCTGTA | -0.0643 E-score |
